Over roughly 81,000 sequences, “one-hybrid fitness for binding parS DNA” has its median near -0.17; the highest 2% begin near 0.51. Some of the results follow.
B1: Caulobacter ParB omega fusion; a variant is named by its letters at X, in order, B8GW30 (parent)
chain: MESVVVGEPGMSEGRRGLGRGLSALLGEVDAAPAQAPGEQLGGSREAPIEILQRNPDQPRRTFREEDLEDLSNSIREKGVLQPILVRPSPDTAGEYQIVAGERAWRAAQRAGLKTVPIMVRELDDLAVLEIGIIENVQRADLNVLEEALSYKVLMEKFERTQENIAQTIGKSXSHVANXMRLLXLPDEVQSYLVSGELTAXHARAIAAAADPVALAKQIIEGGLSVRETEALARKAPNLSAGKSKGGRPPRVKDTDTQALESDLSSVLGLDVSIDHRGSTGTLTITYATLEQLDDLCNRLTRGI

Variants of: B1
Experiment: one-hybrid fitness for binding parS DNA (scaled: cognate 1, non-cognate 0); higher = stronger binding
Settings: with parS DNA site
Method in brief: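 Values were rescaled so that cognate is 1 and non-cognate is 0. Each is a fitness, the log change in a variant's read ratio to wild type from Illumina reads of plasmids before and after selection, with three replicate libraries pooled and variants under 10 reads dropped. Selection of the Caulobacter ParB libraries, four specificity codons randomised, used E. coli USO with a HIS3 reporter, site 19 bp from the promoter, on M9-minus-histidine with 0.1 mM IPTG and 5 mM 3-AT for 48 hours at 37°C.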

Row | Variant | one-hybrid fitness for binding parS DNA
1 | DHDT | ≤ 0.2
2 | MLQL | ≤ 0.2
3 | GTTV | ≤ 0.2
4 | RWQR | ≤ 0.2
5 | TIML | ≤ 0.2
6 | SQND | ≤ 0.2
7 | LRNH | ≤ 0.2
8 | PSTI | ≤ 0.2
9 | HDKT | ≤ 0.2
10 | HKSG | ≤ 0.2
11 | RAEL | ≤ 0.2
12 | NRQH | ≤ 0.2
13 | DGQC | ≤ 0.2
14 | TDPF | ≤ 0.2
15 | MCKG | ≤ 0.2
16 | VFTG | ≤ 0.2
17 | PYSD | ≤ 0.2
18 | WAKC | ≤ 0.2
19 | LNLW | ≤ 0.2
20 | PGSG | ≤ 0.2
21 | AQHN | ≤ 0.2
22 | QMDK | ≤ 0.2
23 | KSVA | ≤ 0.2
24 | SWSM | ≤ 0.2
25 | RKQE | ≤ 0.2

Row | Variant | one-hybrid fitness for binding parS DNA
26 | QPKP | ≤ 0.2
27 | EQVS | ≤ 0.2
28 | SGAR | ≤ 0.2
29 | SKAS | ≤ 0.2
30 | GCSC | ≤ 0.2
31 | ECQG | ≤ 0.2
32 | NWRS | ≤ 0.2
33 | LNCP | ≤ 0.2
34 | RGPG | 0.298
35 | SAYW | ≤ 0.2
36 | TSVA | ≤ 0.2
37 | DHAS | ≤ 0.2
38 | ANYR | ≤ 0.2
39 | VPYL | ≤ 0.2
40 | YRQC | ≤ 0.2
41 | HVTE | ≤ 0.2
42 | LAVT | ≤ 0.2
43 | VVAA | ≤ 0.2
44 | QHNV | ≤ 0.2
45 | DRWT | ≤ 0.2
46 | MHRC | ≤ 0.2
47 | IPPT | ≤ 0.2
48 | RHIH | ≤ 0.2
49 | QIPI | ≤ 0.2
50 | DCKT | ≤ 0.2

Row | Variant | one-hybrid fitness for binding parS DNA
51 | CATG | ≤ 0.2
52 | PVHT | ≤ 0.2
53 | RLDS | 1.01
54 | RMRT | 0.812
55 | FSTL | ≤ 0.2
56 | PSMY | ≤ 0.2
57 | LDFN | ≤ 0.2
58 | TCAA | ≤ 0.2
59 | FTIV | ≤ 0.2
60 | SHAE | ≤ 0.2
61 | GCIR | ≤ 0.2
62 | TANI | ≤ 0.2
63 | QSRW | ≤ 0.2
64 | CPWP | ≤ 0.2
65 | KLAG | ≤ 0.2
66 | VLEM | ≤ 0.2
67 | ATYA | ≤ 0.2
68 | TCLF | ≤ 0.2
69 | HILC | ≤ 0.2
70 | NTPP | ≤ 0.2
71 | EVRT | ≤ 0.2
72 | GCVC | ≤ 0.2
73 | LYFR | ≤ 0.2
74 | QNQW | ≤ 0.2
75 | YIPV | ≤ 0.2

Row | Variant | one-hybrid fitness for binding parS DNA
76 | MGDR | ≤ 0.2
77 | SLLP | ≤ 0.2
78 | YHGV | ≤ 0.2
79 | DVFR | ≤ 0.2
80 | HRTK | ≤ 0.2
81 | PVAV | ≤ 0.2
82 | EVRG | ≤ 0.2
83 | PTSY | ≤ 0.2
84 | QQRP | ≤ 0.2
85 | LDRC | ≤ 0.2
86 | RYVY | 0.357
87 | NASV | ≤ 0.2
88 | YKPE | ≤ 0.2
89 | HERV | ≤ 0.2
90 | MFNV | ≤ 0.2
91 | NDIF | ≤ 0.2
92 | QCPS | ≤ 0.2
93 | VTNG | ≤ 0.2
94 | SDRL | ≤ 0.2
95 | GNRS | ≤ 0.2
96 | IRFS | ≤ 0.2
97 | CLTD | ≤ 0.2
98 | DGWG | ≤ 0.2

From a collection of fitness landscapes (doi:10.1016/j.celrep.2020.107928)
